B1: GPR68, Q15743 (parent)
chain: MGNITADNSSMSCTIDHTIHQTLAPVVYVTVLVVGFPANCLSLYFGYLQIKARNELGVYLCNLTVADLFYICSLPFWLQYVLQHDNWSHGDLSCQVCGILLYENIYISVGFLCCISVDRYLAVAHPFRFHQFRTLKAAVGVSVVIWAKELLTSIYFLMHEEVIEDENQHRVCFEHYPIQAWQRAINYYRFLVGFLFPICLLLASYQGILRAVRRSHGTQKSRKDQIQRLVLSTVVIFLACFLPYHVLLLVRSVWEASCDFAKGVFNAYHFSLLLTSFNCVADPVLYCFVSETTHRDLARLRGACLAFLTCSRTGRAREAYPLGAPEASGKSGAQGEEPELLTKLHPAFQTPNSPGSGGFPTGRLA

The variants in data set [1] derive from B1. The data set can be described thus: cAMP reporter score (Enrich2 score, wild type = 0); higher = more signal; HEK293T, FACS bins.
The variants in data set [2] derive from B1. The data set can be described thus: surface expression score (Enrich2 score, wild type = 0); higher = more signal; HEK293T, FACS bins.

Scores with a large standard error are left out. The source holds two more conditions with little spread; they are left out. Read del as a deletion of the residues named and ins as an insertion between two positions. For some of these results: How much ogerin was present is not stated here.

Consider I236C, for which the cAMP reporter score in data set [1] (pH 5.5) is -0.186; in data set [1] (pH 6), 4.39. Further, in data set [2], the surface expression score is -1.89.
Consider I236L, for which the cAMP reporter score is 1.1 in data set [1] (pH 5.5); 1.03 in data set [1] (pH 6); 1.14 in data set [1] (pH 6, modulator: ogerin); 2.03 in data set [1] (pH 6.5, modulator: ogerin). In addition, in data set [2], the surface expression score was 0.154.
Taken in the same sequence, the figures for I236S were -0.404, 3.68, 0.14, 1.94 and -1.09.
Taken in the same sequence, the figures for I236D were -1.63, -1.03, -1.27, -0.518 and -2.31.
As to I236P, the cAMP reporter score in data set [1] (pH 5.5) is -0.943; in data set [1] (pH 6.5, modulator: ogerin), -1.59.
Take I236V: the cAMP reporter score in data set [1] (pH 5.5) was -0.315; in data set [1] (pH 6) it was 0.235; in data set [1] (pH 6, modulator: ogerin), -0.353; in data set [1] (pH 6.5, modulator: ogerin), 0.228. Also, the surface expression score in data set [2] is -0.383.
As to I236Q, the cAMP reporter score in data set [1] (pH 5.5) was -1.52; in data set [1] (pH 6, modulator: ogerin), -0.656; in data set [1] (pH 6.5, modulator: ogerin), -0.68. Moreover, the surface expression score in data set [2] was -1.73.
Regarding I236R, the cAMP reporter score in data set [1] (pH 5.5) was -1.3; in data set [1] (pH 6), -2.68; in data set [1] (pH 6.5, modulator: ogerin), -1.41. Also, the surface expression score in data set [2] is -3.12.
For I236K, the cAMP reporter score in data set [1] (pH 5.5) is -1.29; in data set [1] (pH 6, modulator: ogerin), -2.62; in data set [1] (pH 6.5, modulator: ogerin) it was -1.5. Also, in data set [2], the surface expression score was -1.4.
Consider I236N, for which the cAMP reporter score was -1.14 in data set [1] (pH 5.5) and -1.89 in data set [1] (pH 6). The surface expression score in data set [2] is -2.9.
For I236Y, the cAMP reporter score in data set [1] (pH 5.5) was -1.95; in data set [1] (pH 6) it was -1.98; in data set [1] (pH 6.5, modulator: ogerin) it was -0.515. Also, in data set [2], the surface expression score is -1.71.
Regarding I236H, the cAMP reporter score in data set [1] (pH 5.5) is -0.482; in data set [1] (pH 6, modulator: ogerin), -1.47.
For the variant I236M, the cAMP reporter score in data set [1] (pH 5.5) was -0.336; in data set [1] (pH 6) it was 1.14; in data set [1] (pH 6, modulator: ogerin) it was 0.061; in data set [1] (pH 6.5, modulator: ogerin), 1.92. Also, the surface expression score in data set [2] was -2.76.
Turning to I236F, the cAMP reporter score in data set [1] (pH 5.5) is 0.061; in data set [1] (pH 6), 3.15; in data set [1] (pH 6, modulator: ogerin), -0.534; in data set [1] (pH 6.5, modulator: ogerin) it was -0.265.
Regarding I226_Q227insG, the cAMP reporter score in data set [1] (pH 5.5) is -1.77; in data set [1] (pH 6), -0.789; in data set [1] (pH 6, modulator: ogerin) it was -1.64; in data set [1] (pH 6.5, modulator: ogerin), -0.821. In data set [2], the surface expression score was 0.672.
Consider K220del, for which the cAMP reporter score in data set [1] (pH 5.5) was -1.3; in data set [1] (pH 6), -1.12; in data set [1] (pH 6, modulator: ogerin), -0.748; in data set [1] (pH 6.5, modulator: ogerin), -0.642. Besides, in data set [2], the surface expression score was -0.335.
As for L231I, the cAMP reporter score in data set [1] (pH 5.5) came out at 0.645; in data set [1] (pH 6, modulator: ogerin), 0.516; in data set [1] (pH 6.5, modulator: ogerin), 2.87. Moreover, the surface expression score in data set [2] is -1.54.
L231C: the cAMP reporter score in data set [1] (pH 5.5) was -0.19; in data set [1] (pH 6) it was 2.9; in data set [1] (pH 6, modulator: ogerin), -0.14; in data set [1] (pH 6.5, modulator: ogerin), 0.656. Further, the surface expression score in data set [2] stood at 0.698.
Turning to L231S, the cAMP reporter score was -0.41 in data set [1] (pH 5.5) and -0.689 in data set [1] (pH 6). Moreover, the surface expression score in data set [2] is -0.388.
As for L231V, the cAMP reporter score in data set [1] (pH 5.5) was -0.667; in data set [1] (pH 6) it was 0.533; in data set [1] (pH 6, modulator: ogerin), -0.764; in data set [1] (pH 6.5, modulator: ogerin), 0.127. The surface expression score in data set [2] is -1.8.
Taken in the same sequence, the figures for L231G were 0.2, -0.774, -0.546, -0.857 and -0.655.
Taken in the same sequence, the figures for L231D were -0.606, -1.59, -1.34, -1.04 and -3.5.
For L231W, the cAMP reporter score in data set [1] (pH 5.5) came out at 0.303; in data set [1] (pH 6.5, modulator: ogerin) it was 2.11.
In the case of L231R, the cAMP reporter score in data set [1] (pH 5.5) was -0.724; in data set [1] (pH 6) it was -1.57; in data set [1] (pH 6, modulator: ogerin), -1.31; in data set [1] (pH 6.5, modulator: ogerin) it was -0.665. The surface expression score in data set [2] was -1.93.
Taken in the same sequence, the figures for L231T were -1.04, -0.089, -0.924, -0.298 and -1.46.
Taken in the same sequence, the figures for L231F were -0.324, 0.568, -0.414, 0.228 and -0.635.
Turning to L231E, the cAMP reporter score was -0.65 in data set [1] (pH 5.5); -2.31 in data set [1] (pH 6); -0.726 in data set [1] (pH 6, modulator: ogerin); -0.975 in data set [1] (pH 6.5, modulator: ogerin). Further, the surface expression score in data set [2] is -2.05.
Taken in the same sequence, the figures for L231K were -0.087, -0.815, -0.595, -1.09 and -0.996.
In the case of L231Y, the cAMP reporter score in data set [1] (pH 5.5) is -0.481; in data set [1] (pH 6, modulator: ogerin) it was -0.341; in data set [1] (pH 6.5, modulator: ogerin), 1.55. Also, the surface expression score in data set [2] was -2.44.
Taken in the same sequence, the figures for L231A were -0.237, 0.165, -0.131 and -0.603.
With L231Q, the cAMP reporter score in data set [1] (pH 5.5) was -1.21; in data set [1] (pH 6) it was 0.047; in data set [1] (pH 6.5, modulator: ogerin), -0.159. Also, in data set [2], the surface expression score was -1.93.
In the case of L231P, the cAMP reporter score in data set [1] (pH 5.5) was -0.764; in data set [1] (pH 6) it was -0.656; in data set [1] (pH 6, modulator: ogerin), -0.914; in data set [1] (pH 6.5, modulator: ogerin) it was -0.754. In addition, the surface expression score in data set [2] was -0.936.
As to L231H, the cAMP reporter score was 1.18 in data set [1] (pH 5.5); 0.741 in data set [1] (pH 6); 0.464 in data set [1] (pH 6, modulator: ogerin); 0.065 in data set [1] (pH 6.5, modulator: ogerin). In addition, in data set [2], the surface expression score was -0.521.
As to Q225_Q227del, the cAMP reporter score in data set [1] (pH 5.5) is -1.72; in data set [1] (pH 6, modulator: ogerin) it was -1.39; in data set [1] (pH 6.5, modulator: ogerin), -1.08. In data set [2], the surface expression score is 0.306.
For the variant I226del, the cAMP reporter score was -2.17 in data set [1] (pH 5.5) and -0.884 in data set [1] (pH 6). For the same variant, the surface expression score in data set [2] is -0.182.

For the origin of these results see the GPR68 mutational scans of Howard et al. (2025).
